Source: PubChem BioAssay AID588342 (National Center for Advancing Translational Sciences (NCATS), 2011)
Hit rate of the full screen: of about 360,000 compounds, about 25,000 (6.9%) were called active. Inconclusive results, whose numbers are uncertain, are shown with a selection of clear calls. Calls come from the whole dose curve; as a rule, active = well fitted inhibition curve with a large enough effect; inconclusive = small, poorly fitted or top-dose-only effect; inactive = flat fitted curve, though single readings scatter. Potencies beside an inconclusive call are fits to weak or partial responses and may not hold up.
Note: nearly all actives have a fitted effect of over 55% in size.
Potency is the fitted concentration of half-maximal effect; tags give direction and shape of the fitted curve.

Each molecule was assayed against Luciferin 4-monooxygenase (Photinus pyralis) (UniProt P08659) (assay: qHTS profiling assay for firefly luciferase inhibitor/activator using purifed enzyme and Km concentrations of substrates (counterscreen for miR-21 project)). Conditions: purified FLuc, luminescence inhibition; series mostly up to 57.5 µM.
Sequence of UniProt P08659 (P08659 whole entry, looked up): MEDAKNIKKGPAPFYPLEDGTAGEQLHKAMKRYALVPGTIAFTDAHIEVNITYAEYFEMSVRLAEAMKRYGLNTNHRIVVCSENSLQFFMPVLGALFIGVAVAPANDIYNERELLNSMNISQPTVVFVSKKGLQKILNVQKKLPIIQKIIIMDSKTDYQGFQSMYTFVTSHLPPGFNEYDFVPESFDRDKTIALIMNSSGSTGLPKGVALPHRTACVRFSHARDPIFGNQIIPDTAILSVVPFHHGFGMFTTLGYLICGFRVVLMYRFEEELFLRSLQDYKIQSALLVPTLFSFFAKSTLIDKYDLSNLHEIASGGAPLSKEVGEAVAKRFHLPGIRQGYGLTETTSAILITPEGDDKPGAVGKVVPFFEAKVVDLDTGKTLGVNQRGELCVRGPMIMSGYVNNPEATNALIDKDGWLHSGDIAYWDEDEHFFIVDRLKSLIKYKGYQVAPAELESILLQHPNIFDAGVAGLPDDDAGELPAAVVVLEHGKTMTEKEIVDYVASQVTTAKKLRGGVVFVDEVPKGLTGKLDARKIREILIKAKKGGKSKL
Summary of the method: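 Purified P. pyralis luciferase, 10 nM final, with Km-level 10 uM D-luciferin and 10 uM ATP in 50 mM Tris acetate pH 7.5, 10 mM Mg acetate, 0.01% Tween-20, 0.05% BSA; 6-point qHTS titration about 60 µM downward; luminescence read.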
With `COc1cc(-c2nc(Cc3c(F)cccc3Cl)no2)cc(OC)c1OC` the Potency was inconclusive: 26.9 µM [inhibitor, partial curve, poor fit].
With `C=CCN(CC(=O)NC1CCCC1)C(=O)C(=O)Nc1ccc2c(c1)OCCO2` the Potency was “inactive”.
`O=C(Cn1nnc(-c2ccccc2)n1)c1ccccc1` was tested, and the Potency was inconclusive: 21.3 µM [inhibitor, single point].
With `Cc1ccc(N=C2NC(=O)/C(=C\c3cccs3)S2)cc1C` the Potency was inconclusive: 6.75 µM [inhibitor, partial curve].
With `COc1ccc(CNC(=O)COC(=O)CCOc2ccc(C)cc2)cc1` the Potency was “inactive”.
In the case of `Cc1ccc(CCNC(=O)C2CCC(=O)N(Cc3ccccc3F)C2)o1` (stereo not drawn), the Potency is reported as inconclusive: 21.3 µM [inhibitor, single point].
In the case of `Cc1cc(=O)c(C(=O)Nc2cccc(N3CCCC3=O)c2)nn1-c1ccccc1F`, the Potency is reported as inconclusive: 15.1 µM [inhibitor, partial curve].
For `CCN(CC)C(=O)C(=O)Nc1ccc(Oc2ccccc2)cc1`, the Potency was inconclusive: 37.9 µM [inhibitor, single point].
For `O=C(O)c1ccccc1C(=O)Nc1ccc(Oc2ccc3ccccc3c2)cc1`, the Potency was active: 26.9 µM.
With `O=C(CNC(=O)c1cc2c(s1)CCC2)Nc1ccccc1Br` the Potency was inconclusive: 26.9 µM [inhibitor, single point].
With `CCCCc1ccc(NC(=S)N2CCN(C(=O)OCC)CC2)cc1` the Potency was “inactive”.
With `O=S(=O)([N-]c1nc2ccccc2nc1-[n+]1ccc(-c2ccncc2)cc1)c1ccccc1` the Potency was inconclusive: 37.9 µM [inhibitor, partial curve, poor fit].
`CCCCc1cc(=O)oc2cc(OCc3nn[nH]n3)ccc12` was tested, and the Potency was inconclusive: 30.1 µM [inhibitor, partial curve, poor fit].
With `COc1ccccc1/C=c1\sc2nc(-c3ccccc3OC)nn2c1=O` the Potency was inconclusive: 13.5 µM [inhibitor, partial curve].
`Cc1cccc(OCC(=O)Nc2cc(NC(=O)COc3cccc(C)c3)cc(C(=O)O)c2)c1` was tested, and the Potency was “inactive”.
In the case of `Cc1onc(C(=O)NN)c1-c1csc(COc2ccc(Cl)cc2)n1`, the Potency is reported as inconclusive: 37.9 µM [inhibitor, partial curve, poor fit].
With `COc1cccc(OCCOc2ccc(/C=C3/SC(=S)NC3=O)cc2)c1` the Potency was inconclusive: 26.9 µM [inhibitor, partial curve, poor fit].
In the case of `CC1CCN(CC2CCN(C(=O)Nc3ccc(Br)cc3F)CC2)CC1`, the Potency is reported as “inactive”.
With `COCC(C)NC(=O)/C=C/c1ccc(OC)cc1` (stereo not drawn) the Potency was inconclusive: 23.9 µM [inhibitor, partial curve, poor fit].
For `O=C(N/N=C/c1cc([N+](=O)[O-])ccc1O)Nc1ccccc1`, the Potency was inconclusive: 26.9 µM [inhibitor, single point].
`CN(C)C(=O)CSc1nnc(C23CC4CC(CC(C4)C2)C3)o1` was tested, and the Potency was inconclusive: 23.9 µM [inhibitor, partial curve].
`Cc1ccc(NC(=O)C2OCCc3ccccc32)cc1Cl` (stereo not drawn) was tested, and the Potency was active: 23.9 µM.
With `Nc1[nH]nc2c1NN(c1ccc(Cl)cc1Cl)N2` the Potency was active: 12 µM.
With `NS(=O)(=O)c1ccc2nc(NC(=O)c3ccc(Br)o3)sc2c1` the Potency was active: 9.53 µM.
`O=C(NCCO)c1cc2cc(Cl)cc(Cl)c2oc1=O` was tested, and the Potency was inconclusive: 37.9 µM [inhibitor, partial curve, poor fit].
With `O=C(O)c1cccc(N/N=C/C2=C(Cl)c3cc(Cl)ccc3SC2)c1` the Potency was active: 1.35 µM.
In the case of `O=C(Nc1sc2c(c1C(=O)O)CCCC2)c1ccc(Cl)cc1`, the Potency is reported as active: 19 µM.
With `Cc1ccc(NC(=O)NNC(=O)CN2C(=O)COc3ccccc32)cc1` the Potency was inconclusive: 16.9 µM [inhibitor, partial curve].
In the case of `CCOC(=O)c1ccc(NC(=O)N2CCc3ccccc3C2)cc1`, the Potency is reported as inconclusive: 37.9 µM [inhibitor, partial curve, poor fit].
With `O=C(O)c1cc([N+](=O)[O-])ccc1NCc1ccccc1Cl` the Potency was inconclusive: 16.9 µM [inhibitor, partial curve].
In the case of `Cc1onc(-c2ccccc2Cl)c1C(=O)OCC(=O)c1ccccc1`, the Potency is reported as inconclusive: 30.1 µM [inhibitor, partial curve, poor fit].
In the case of `COc1ccc(CCn2c3c(c(=O)[nH]c2=O)C(NC(=O)c2ccc(C(C)(C)C)cc2)(C(F)(F)F)C(=O)N3)cc1OC` (stereo not drawn), the Potency is reported as inconclusive: 13.5 µM [inhibitor, partial curve].
`O=C1CN(c2nc(-c3cccnc3)nc3scc(-c4ccccc4)c23)CCN1` was tested, and the Potency was inconclusive: 37.9 µM [inhibitor, single point].
`COc1ccccc1Cc1nc2ccccc2nc1SCC(=O)N1CCN(c2ccccc2)CC1` was tested, and the Potency was “inactive”.
With `Cn1c(Nc2ccc(F)cc2)nc2ccccc21` the Potency was inconclusive: 21.3 µM [inhibitor, single point].
For `CN(C)c1cccc(C(=O)NNC(=S)NC2CCCC2)c1`, the Potency was inconclusive: 37.9 µM [inhibitor, partial curve, poor fit].
In the case of `O=[N+]([O-])c1cccc(C=Nc2cc3c(cc2Br)OCCO3)c1`, the Potency is reported as inconclusive: 16.9 µM [inhibitor, partial curve].
`CCOC(=O)c1cnc(SCc2nc(N)nc(Nc3ccc(F)cc3)n2)nc1N` was tested, and the Potency was inconclusive: 7.57 µM [inhibitor, partial curve, poor fit].
With `O=C(CSc1ccccc1)Nc1ccc(N2CCOCC2)c(F)c1` the Potency was inconclusive: 23.9 µM [inhibitor, partial curve].
For `CC(C)(C)CC(=O)NC(=S)NCCc1ccccc1`, the Potency was inconclusive: 26.9 µM [inhibitor, partial curve, poor fit].
For `COc1ccc(-c2nnc(SCc3ccccc3F)o2)cc1OC`, the Potency was active: 23.9 µM.
In the case of `C=C(C)CSc1nnc(-c2ccc(C)cc2)n1N`, the Potency is reported as inconclusive: 19 µM [inhibitor, single point].
For `CCCCOC(=O)CSC(=S)N(C)Cc1cccs1`, the Potency was inconclusive: 23.9 µM [inhibitor, partial curve, poor fit].
